Results: the supplement of paper PMC5499739
Over roughly 16,000 sequences, “Z-score” has its median near -0.37; the highest 2% begin near 3.1. Some of the results follow.

test system: RBM10 RRM1-ZnF-RRM2 (GST-tagged construct); assay: RNAcompete 7-mer binding Z-score; higher = stronger binding preference
How it was run: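 GST-tagged RBM10 constructs (20 pmol) were mixed with a designed pool of 241 399 RNAs up to 41 nt (1.5 nmol), transcribed from microarray-derived DNA templates. Mixing was in 1 ml Hepes pH 7.8 buffer with KCl, NaCl, glycerol, DTT, BSA and glutathione Sepharose beads. Binding ran 30 min at 4°C, followed by four 2-min washes at 4°C, and bound RNA was identified by microarray hybridisation. Each heptamer motif received a one-sided Z-score for enrichment across probes containing it.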

Sequence	RNAcompete 7-mer binding Z-score
AGGAGCA	1.59
GGAGCUC	0.126
GAGAUGC	0.421
AUCGGAA	0.519
AGAUAUA	0.0204
AUACGCU	-0.497
CUUGAUU	-0.774
CACAACA	-0.318
GAAACUG	-0.0998
GGCUUAA	-0.329
AUCAUGG	0.865
UCCCCCA	-0.38
CAAGUGA	0.228
CCGUCCA	-0.704
GCGUCGG	0.884
UUAGGUC	-0.118
CGCUGGA	-0.027
CUCCUGA	-0.806
GGACUUC	-0.271
UGGGUCC	1.2
AUGUCUU	-0.806
AUCCUGG	-0.679
GUCGGAC	0.228

Sequence	RNAcompete 7-mer binding Z-score
GAUCUGU	-0.551
UCUACAG	-0.759
GAGGCAG	1.68
CGUUUCU	-0.77
CAGUGGU	1.11
GGCGGUC	0.869
GAGGAUA	2
UCAAAUG	-0.384
GACCAUC	-0.846
AAUUUAU	-0.551
AUUUGGC	-0.344
GCUCUAC	-0.868
CGAAGUG	1.1
AUGGCAU	0.803
GGUCAAG	1.05
AGGCGCC	-0.435
UGUGAUG	0.315
AGAACAA	0.0422
UGAGGAA	1.67
AGAGGGU	2.21
CUGUAUU	-0.737
AAACGAC	-0.409
CCAGGCU	-0.533

Sequence	RNAcompete 7-mer binding Z-score
GAUGCUG	-0.169
CAAAUGC	-0.643
GUGUGUC	-0.122
CGACAAA	-0.439
CCAAUAU	-0.664
CGGUAGG	2.15
UGUCUCG	-0.639
CAGAGAC	0.0677
AUUGUCG	-0.402
GGUCAUA	0.235
GAUUAUC	-0.464
UUUAACG	-0.646
UUACCUA	-0.723
AGCCAUA	-0.533
GGAUCAA	1.19
UCCAAGG	0.141
AUCAUUU	-0.843
UGUCAUC	-0.672
CUCGCGG	-0.0816
UGUUGCU	-0.741
CGUCUUC	-0.668
AGAAUCG	-0.0197
UAUUAAG	-0.446

Sequence	RNAcompete 7-mer binding Z-score
GCCUACU	-0.945
GCUGGGU	1.78
UAGGGUA	4.16
GGAGGUG	3.64
ACAAACG	0.221
AUGUAGA	0.243
CCGUCAU	-0.741
GCAAUUU	-0.643
GUGUAAG	1.28
GCUGUAG	-0.151
CACCCGG	-0.595
UCCGGAG	-0.0343
AUUAUGA	-0.136
CUGGCGC	-0.202
UGUUCAA	-0.795
CAGAACC	-0.555
UGUUGUU	-0.286
CGUUGCU	-0.65
GCCUUCG	-0.905
GCGUUGC	-0.293
CUCUAGC	-0.956
UGAUACC	-0.377
CACCAGA	-0.5

Sequence	RNAcompete 7-mer binding Z-score
CGUCGCG	-0.0816
GGCCCCA	-0.508
CGGAUGU	0.778
UAUCUUA	-0.741
CUACCAA	-0.548
CGACUAA	-0.686
GUGUGGU	1.87
GUAGAUA	0.548
AGAUGAG	1.48
UCCACUA	-0.668
UAGCCAC	-0.624
AGCACGA	-0.0124
GGCUCCA	-0.515
GUCUACU	-0.635
ACAGGGG	3.19
CAGCUCA	-0.795
GGCACGC	0.0604
AACAAGC	-0.176
GGUAGUC	0.989
GUGUUAU	-0.198
CACCAAC	-0.57
GGCCAAG	0.199
ACAGAAC	-0.435

Sequence	RNAcompete 7-mer binding Z-score
UAAUACA	-0.391
AUCUGAU	-0.766
AUGAUGG	2.5
UUGUGGC	0.0532
GACGGCG	0.836
CCGCUUG	-0.832
GGGUCAU	1.37
GGUGGGG	4.34
CACACUC	-0.792
GAGCUGC	-0.216
GGAUCCG	0.589
CUUGAAA	-0.719
GGAACAU	0.527
AAUGUUA	-0.216
CCGUCUG	-0.806
CCCUAAG	-0.515
UGUACUA	-0.573
CGGUGAU	0.723
AAAGAGG	1.49
CAAACGC	-0.402
AACGACG	-0.0743
GAUAUAG	0.734
CCUCCAU	-0.916

Sequence	RNAcompete 7-mer binding Z-score
GGGGAUU	2.36
CUGCGUC	-0.657
ACUCUAU	-0.85
CGUAUGC	-0.49
CUCGGCA	-0.65
UUGGGAA	1.92
UCCAUAU	-0.599
CAUUAUC	-0.737
AUAGUGA	0.669
CACGCCC	-0.715
AUCCAGU	-0.398
CCCGUGU	-0.406
UGGCUGC	-0.027
CCAAACG	-0.293
UAGUACA	0.0459
GUCGUUU	-0.067
GCAGAAA	0.45
GACUGGC	-0.253
UUCAUAG	-0.333
GAGUUUU	-0.103
AACCGGU	0.177
UGAUCGA	-0.246
UUUAGGC	-0.278

Sequence	RNAcompete 7-mer binding Z-score
AACUUUC	-0.81
CUAUGAG	-0.169
GGGGCAA	2.84
CCUACCU	-0.857
UAGCUCC	-0.694
UGUACGC	-0.282
CUCCGCG	-0.628
UCCCCUG	-0.435
AAGGCUG	0.701
UAACCGG	-0.0197
CGAAUUA	-0.362
UCUGUAG	-0.431
UGAAGCC	-0.562
AUUAAAC	-0.664
AGUGCCA	-0.107
GACCUAU	-0.959
ACUUGGA	-0.0233
CUCAUUG	-0.712
AAAAUUC	-0.628
UGGUGCC	0.232
GUGUCGA	0.173
GUCGCUU	-0.555
